Results on seven molecules are retold here after paper PMC2838797.

Protein sequences, listed by entry. Tags and fused reporters are not part of them. Lines headed by an entry give the natural chain unless they say otherwise; changes in a name come on top.
UniProt P40337: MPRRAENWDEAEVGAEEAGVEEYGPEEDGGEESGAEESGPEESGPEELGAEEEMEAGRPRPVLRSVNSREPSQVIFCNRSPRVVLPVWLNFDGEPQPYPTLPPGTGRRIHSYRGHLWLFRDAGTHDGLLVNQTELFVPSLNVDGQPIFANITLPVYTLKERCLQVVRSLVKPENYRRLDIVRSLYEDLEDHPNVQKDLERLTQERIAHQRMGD
UniProt Q16665: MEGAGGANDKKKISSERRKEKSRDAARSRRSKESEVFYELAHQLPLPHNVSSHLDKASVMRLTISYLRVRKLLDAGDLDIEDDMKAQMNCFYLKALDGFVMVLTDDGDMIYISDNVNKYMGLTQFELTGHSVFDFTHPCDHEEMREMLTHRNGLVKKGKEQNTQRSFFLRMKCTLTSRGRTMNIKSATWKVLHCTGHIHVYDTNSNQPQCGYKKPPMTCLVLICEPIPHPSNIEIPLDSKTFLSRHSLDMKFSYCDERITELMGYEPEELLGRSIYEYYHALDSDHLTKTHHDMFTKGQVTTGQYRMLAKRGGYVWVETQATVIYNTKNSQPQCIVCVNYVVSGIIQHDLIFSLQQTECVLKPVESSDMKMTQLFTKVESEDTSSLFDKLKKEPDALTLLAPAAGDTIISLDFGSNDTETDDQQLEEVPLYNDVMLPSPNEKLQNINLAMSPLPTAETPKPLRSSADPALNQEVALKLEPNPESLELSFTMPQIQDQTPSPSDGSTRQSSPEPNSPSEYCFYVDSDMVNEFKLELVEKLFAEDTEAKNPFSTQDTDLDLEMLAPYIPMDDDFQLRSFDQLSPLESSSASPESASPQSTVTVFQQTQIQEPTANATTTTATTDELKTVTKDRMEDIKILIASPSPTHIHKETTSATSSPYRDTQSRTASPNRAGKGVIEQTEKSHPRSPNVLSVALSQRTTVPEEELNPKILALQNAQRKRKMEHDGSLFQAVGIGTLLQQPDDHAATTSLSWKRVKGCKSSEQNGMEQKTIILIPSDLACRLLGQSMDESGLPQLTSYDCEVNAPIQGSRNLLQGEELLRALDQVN

These are yes or no findings as the source states them, for the method shown. In cells and extracts the contact can be indirect. Some entries that bind do so weakly or less than the wild type. For part of these data: Tags and fused reporters may be left off the sequences shown.

The target in assay [1] is HA-VHL (wild type von Hippel Lindau tumor suppressor with HA tag) (human) (UniProt P40337). Description: co-IP; HEK293 cells cotransfected, harvested 48 h posttransfection; RIPA lysates, IP and immunoblotting as indicated (Figures 2A, 2E, 4A). On the technique in general: In western blotting, separated proteins are transferred to a membrane and probed.
The target in assay [2] is HIF1α (pCEP4/HIF1α) (UniProt Q16665). Description: co-IP; 786-O cells transfected with HIF1α, HA-VHL and FLAG-PIASy, 20 µM MG132 for 2 hr; IP with anti-HIF1α, immunoblot anti-HA, anti-HIF1α, anti-FLAG (Figure 5A).
The target in assay [3] is endogenous VHL (human (endogenous in HEK293)) (UniProt P40337). Description: co-IP; endogenous proteins; IP targeting VHL, immunoblotting for PIASy; preclear with normal rabbit serum (Figure 2B).
Assay [4] concerns the target FLAG-VHL (K171R) (human) (UniProt P40337). The assay is described as follows: co-IP; HEK293 cells cotransfected, harvested 48 h posttransfection; RIPA lysates, IP and immunoblotting as indicated (Figures 2A, 2E, 4A).
The target in assay [5] is FLAG-VHL (wild type) (human) (UniProt P40337). Described as above.

B1: FLAG-PIAS3 (enzyme, UniProt Q9Y6X2 1-628)
chain: MAELGELKHMVMSFRVSELQVLLGFAGRNKSGRKHELLAKALHLLKSSCAPSVQMKIKELYRRRFPRKTLGPSDLSLLSLPPGTSPVGSPGPLAPIPPTLLAPGTLLGPKREVDMHPPLPQPVHPDVTMKPLPFYEVYGELIRPTTLASTSSQRFEEAHFTFALTPQQVQQILTSREVLPGAKCDYTIQVQLRFCLCETSCPQEDYFPPNLFVKVNGKLCPLPGYLPPTKNGAEPKRPSRPINITPLARLSATVPNTIVVNWSSEFGRNYSLSVYLVRQLTAGTLLQKLRAKGIRNPDHSRALIKEKLTADPDSEVATTSLRVSLMCPLGKMRLTVPCRALTCAHLQSFDAALYLQMNEKKPTWTCPVCDKKAPYESLIIDGLFMEILSSCSDCDEIQFMEDGSWCPMKPKKEASEVCPPPGYGLDGLQYSPVQGGDPSENKKKVEVIDLTIESSSDEEDLPPTKKHCSVTSAAIPALPGSKGVLTSGHQPSSVLRSPAMGTLGGDFLSSLPLHEYPPAFPLGADIQGLDLFSFLQTESQHYGPSVITSLDEQDALGHFFQYRGTPSHFLGPLAPTLGSSHCSATPAPPPGRVSSIVAPGGALREGHGGPLPSGPSLTGCRSDIISLD
For the molecule B1, the binding result in assay [1] was “no binding”.

B2: FLAG-PIASy1-233 (domain or fragment, UniProt Q8N2W9 1-233)
chain: MAAELVEAKNMVMSFRVSDLQMLLGFVGRSKSGLKHELVTRALQLVQFDCSPELFKKIKELYETRYAKKNSEPAPQPHRPLDPLTMHSTYDRAGAVPRTPLAGPNIDYPVLYGKYLNGLGRLPAKTLKPEVRLVKLPFFNMLDELLKPTELVPQNNEKLQESPCIFALTPRQVELIRNSRELQPGVKAVQVVLRICYSDTSCPQEDQYPPNIAVKVNHSYCSVPGYYPSNKPG
Take B2: in assay [1], the binding entry was “no binding”.

B3: FLAG-PIASy1-415 (domain or fragment, UniProt Q8N2W9 1-415)
chain: MAAELVEAKNMVMSFRVSDLQMLLGFVGRSKSGLKHELVTRALQLVQFDCSPELFKKIKELYETRYAKKNSEPAPQPHRPLDPLTMHSTYDRAGAVPRTPLAGPNIDYPVLYGKYLNGLGRLPAKTLKPEVRLVKLPFFNMLDELLKPTELVPQNNEKLQESPCIFALTPRQVELIRNSRELQPGVKAVQVVLRICYSDTSCPQEDQYPPNIAVKVNHSYCSVPGYYPSNKPGVEPKRPCRPINLTHLMYLSSATNRITVTWGNYGKSYSVALYLVRQLTSSELLQRLKTIGVKHPELCKALVKEKLRLDPDSEIATTGVRVSLICPLVKMRLSVPCRAETCAHLQCFDAVFYLQMNEKKPTWMCPVCDKPAPYDQLIIDGLLSKILSECEDADEIEYLVDGSWCPIRAEKERSC
For B3, the binding entry in assay [1] was “binds”.

B4: FLAG-PIASy (full length PIASy) (enzyme, UniProt Q8N2W9 1-510)
chain: MAAELVEAKNMVMSFRVSDLQMLLGFVGRSKSGLKHELVTRALQLVQFDCSPELFKKIKELYETRYAKKNSEPAPQPHRPLDPLTMHSTYDRAGAVPRTPLAGPNIDYPVLYGKYLNGLGRLPAKTLKPEVRLVKLPFFNMLDELLKPTELVPQNNEKLQESPCIFALTPRQVELIRNSRELQPGVKAVQVVLRICYSDTSCPQEDQYPPNIAVKVNHSYCSVPGYYPSNKPGVEPKRPCRPINLTHLMYLSSATNRITVTWGNYGKSYSVALYLVRQLTSSELLQRLKTIGVKHPELCKALVKEKLRLDPDSEIATTGVRVSLICPLVKMRLSVPCRAETCAHLQCFDAVFYLQMNEKKPTWMCPVCDKPAPYDQLIIDGLLSKILSECEDADEIEYLVDGSWCPIRAEKERSCSPQGAILVLGPSDANGLLPAPSVNGSGALGSTGGGGPVGSMENGKPGADVVDLTLDSSSSSEDEEEEEEEEEDEDEEGPRPKRRCPFQKGLVPAC
Regarding B4, the binding entry in assay [1] is reported as “binds”; in assay [2] it was “no binding”.

B5: endogenous PIASy (enzyme, UniProt Q8N2W9 1-510)
chain: MAAELVEAKNMVMSFRVSDLQMLLGFVGRSKSGLKHELVTRALQLVQFDCSPELFKKIKELYETRYAKKNSEPAPQPHRPLDPLTMHSTYDRAGAVPRTPLAGPNIDYPVLYGKYLNGLGRLPAKTLKPEVRLVKLPFFNMLDELLKPTELVPQNNEKLQESPCIFALTPRQVELIRNSRELQPGVKAVQVVLRICYSDTSCPQEDQYPPNIAVKVNHSYCSVPGYYPSNKPGVEPKRPCRPINLTHLMYLSSATNRITVTWGNYGKSYSVALYLVRQLTSSELLQRLKTIGVKHPELCKALVKEKLRLDPDSEIATTGVRVSLICPLVKMRLSVPCRAETCAHLQCFDAVFYLQMNEKKPTWMCPVCDKPAPYDQLIIDGLLSKILSECEDADEIEYLVDGSWCPIRAEKERSCSPQGAILVLGPSDANGLLPAPSVNGSGALGSTGGGGPVGSMENGKPGADVVDLTLDSSSSSEDEEEEEEEEEDEDEEGPRPKRRCPFQKGLVPAC
As for B5, the binding entry in assay [3] is “binds”.

B6: PIASy 1-492 with myc tag (enzyme, UniProt Q8N2W9 1-492)
chain: MAAELVEAKNMVMSFRVSDLQMLLGFVGRSKSGLKHELVTRALQLVQFDCSPELFKKIKELYETRYAKKNSEPAPQPHRPLDPLTMHSTYDRAGAVPRTPLAGPNIDYPVLYGKYLNGLGRLPAKTLKPEVRLVKLPFFNMLDELLKPTELVPQNNEKLQESPCIFALTPRQVELIRNSRELQPGVKAVQVVLRICYSDTSCPQEDQYPPNIAVKVNHSYCSVPGYYPSNKPGVEPKRPCRPINLTHLMYLSSATNRITVTWGNYGKSYSVALYLVRQLTSSELLQRLKTIGVKHPELCKALVKEKLRLDPDSEIATTGVRVSLICPLVKMRLSVPCRAETCAHLQCFDAVFYLQMNEKKPTWMCPVCDKPAPYDQLIIDGLLSKILSECEDADEIEYLVDGSWCPIRAEKERSCSPQGAILVLGPSDANGLLPAPSVNGSGALGSTGGGGPVGSMENGKPGADVVDLTLDSSSSSEDEEEEEEEEEDEDEE
In the case of B6, the binding result in assay [4] and in assay [5] was “binds” throughout.

B7: FLAG-PIASy1-461 (domain or fragment, UniProt Q8N2W9 1-461)
chain: MAAELVEAKNMVMSFRVSDLQMLLGFVGRSKSGLKHELVTRALQLVQFDCSPELFKKIKELYETRYAKKNSEPAPQPHRPLDPLTMHSTYDRAGAVPRTPLAGPNIDYPVLYGKYLNGLGRLPAKTLKPEVRLVKLPFFNMLDELLKPTELVPQNNEKLQESPCIFALTPRQVELIRNSRELQPGVKAVQVVLRICYSDTSCPQEDQYPPNIAVKVNHSYCSVPGYYPSNKPGVEPKRPCRPINLTHLMYLSSATNRITVTWGNYGKSYSVALYLVRQLTSSELLQRLKTIGVKHPELCKALVKEKLRLDPDSEIATTGVRVSLICPLVKMRLSVPCRAETCAHLQCFDAVFYLQMNEKKPTWMCPVCDKPAPYDQLIIDGLLSKILSECEDADEIEYLVDGSWCPIRAEKERSCSPQGAILVLGPSDANGLLPAPSVNGSGALGSTGGGGPVGSMENGKP
B7: the binding result in assay [1] is recorded as “binds”.
